Experimental data reported in publication PMC4336329 (PLoS ONE, 2015).
Out of some 310,000 compounds screened, about 2,200 (0.71%) showed an effect of 50% or more. The effect is printed as a negative number. The list shows a part of the results.

biological target: human ether-à-go-go-related gene (hERG) potassium channel (human, UniProt Q12809); assay: primary screen, population patch clamp on CHO cells stably expressing hERG
Sequence (Q12809 whole entry, looked up): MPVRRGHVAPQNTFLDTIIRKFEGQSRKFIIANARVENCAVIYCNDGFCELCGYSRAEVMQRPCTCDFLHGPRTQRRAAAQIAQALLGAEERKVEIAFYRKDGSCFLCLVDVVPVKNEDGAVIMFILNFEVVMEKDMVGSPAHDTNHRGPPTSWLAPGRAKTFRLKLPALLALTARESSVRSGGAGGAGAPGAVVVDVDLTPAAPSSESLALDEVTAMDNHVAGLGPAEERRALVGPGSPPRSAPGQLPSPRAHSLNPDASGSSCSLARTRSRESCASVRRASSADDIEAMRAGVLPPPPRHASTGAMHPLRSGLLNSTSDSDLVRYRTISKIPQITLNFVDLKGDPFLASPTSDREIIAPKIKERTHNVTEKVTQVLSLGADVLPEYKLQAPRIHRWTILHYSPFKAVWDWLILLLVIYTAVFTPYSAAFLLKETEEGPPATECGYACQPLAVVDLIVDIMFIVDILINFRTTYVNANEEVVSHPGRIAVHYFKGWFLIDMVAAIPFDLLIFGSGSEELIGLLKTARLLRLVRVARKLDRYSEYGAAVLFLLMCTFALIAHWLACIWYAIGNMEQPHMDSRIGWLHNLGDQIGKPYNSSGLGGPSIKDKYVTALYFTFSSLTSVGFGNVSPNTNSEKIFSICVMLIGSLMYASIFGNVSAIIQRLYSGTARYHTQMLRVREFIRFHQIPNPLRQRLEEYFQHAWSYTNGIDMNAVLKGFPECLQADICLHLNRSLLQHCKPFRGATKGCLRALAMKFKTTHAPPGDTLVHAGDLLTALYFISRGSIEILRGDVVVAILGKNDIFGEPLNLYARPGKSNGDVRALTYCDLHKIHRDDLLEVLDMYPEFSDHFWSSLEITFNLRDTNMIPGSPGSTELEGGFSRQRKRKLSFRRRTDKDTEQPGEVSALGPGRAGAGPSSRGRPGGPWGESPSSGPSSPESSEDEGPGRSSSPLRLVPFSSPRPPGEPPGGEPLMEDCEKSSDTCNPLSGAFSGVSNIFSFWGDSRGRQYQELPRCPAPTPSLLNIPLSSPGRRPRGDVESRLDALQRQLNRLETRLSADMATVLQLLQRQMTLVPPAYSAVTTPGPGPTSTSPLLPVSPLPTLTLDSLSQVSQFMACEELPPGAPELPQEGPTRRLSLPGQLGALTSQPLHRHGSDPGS

Row | SMILES | hERG current change (%, negative = inhibition) at 1uM
1 | Cn1sc(NC(=O)c2ccc(Cl)cc2)nc1=O | 3.83%
2 | O=C(NCCc1ccccc1)c1cc(-c2ccncc2)nc2ccc(S(=O)(=O)N3CCOCC3)cc12 | 11.9%
3 | CCCCNC(=O)COC(=O)c1c2c(nc3ccccc13)CCC2 | 13.1%
4 | Cc1onc(-c2c(F)cccc2Cl)c1C(=O)N=C(N)N1CCCC1 | 10.2%
5 | Cc1c(Cl)cccc1NC(=S)N1CCN(c2ccc([N+](=O)[O-])cn2)CC1 | 15.7%
6 | COC(=O)c1cc(CNC(=O)c2sccc2-c2ccccc2)ccc1OC | 6.21%
7 | COc1cccc2c(=O)n(CC(=O)N3CCc4ccccc43)ccc12 | 0.712%
8 | COCCNc1c2c(nc3c(-c4ccccc4)c(C)nn13)CCCC2 | 5.77%
9 | COc1ccc(CN2CCNC(=O)C2CC(=O)NCc2csc(C)n2)c(F)c1 (stereo not drawn) | 15.3%
10 | CC1CN(C2CCN(S(=O)(=O)c3ccc4ccccc4c3)CC2)CC(C)O1 (stereo not drawn) | 18.6%
11 | O=C(CSc1nncn1-c1cccnc1)N1CCOCC1 | 10.6%
12 | CCN(CC)CCOC(=O)c1ccc(N/C=C(/C#N)c2nc(-c3cc4ccccc4oc3=O)cs2)cc1 | 5.18%
13 | Cc1ccc(S(=O)(=O)/N=C(\N)Nc2nc(C)c3ccccc3n2)cc1 | 4.57%
14 | CS(=O)(=O)c1ccccc1C(=O)Nc1cccc(-c2nc3ccccc3o2)c1 | 12.9%
15 | C#CCSc1nccc(-c2nn(-c3ccc(C)cc3)ccc2=O)n1 | 9.13%
16 | CC1CCC(NC(=O)CN(C)S(=O)(=O)c2ccc3c(c2)CCC(=O)N3)CC1 (stereo not drawn) | 13.1%
17 | Cc1ccc(C)c(NS(=O)(=O)c2ccc(-c3coc(C)n3)cc2)c1 | 12.1%
18 | COc1cc(/C=C2/OC(=O)c3cc([N+](=O)[O-])ccc32)cc(OC)c1OC | 14.2%
19 | O=C(Nc1cccc(-c2cn3ccccc3n2)c1)c1ccccc1 | 0.927%
20 | COc1ccccc1NC(=O)N1CCCC1C(=O)NCc1ccc2c(c1)OCO2 (stereo not drawn) | 11.9%
21 | COc1nc(N(C#N)CC(N)=O)nc(N2CCCC2)n1 | 11%
22 | CCOC(=O)c1c(-c2cccc3ccccc23)csc1NC(=O)C1C2CCC(O2)C1C(=O)O (stereo not drawn) | 7.1%

Row | SMILES | hERG current change (%, negative = inhibition) at 1uM
23 | CN(C)c1ccc(/C=N/NC(=O)c2ccc3nc[nH]c3c2)cc1 | 2.85%
24 | Cc1cnc(C(=O)N2CCCC(N3CCN(c4cccc(C(F)(F)F)c4)CC3)C2)cn1 (stereo not drawn) | 0.878%
25 | O=C(CCCOc1ccc(Cl)cc1Cl)Nc1ncccn1 | 15.6%
26 | Cc1c(NC(=O)c2ccc(N3C(=O)C4C5C=CC(C5)C4C3=O)cc2)c(=O)n(-c2ccccc2)n1C (stereo not drawn) | 20.4%
27 | COc1ccc(Cl)cc1S(=O)(=O)N1CCC(C(=O)NCC2CCCO2)CC1 (stereo not drawn) | -11.3%
28 | Cc1ccc(S(=O)(=O)CCSc2n[nH]c(=O)n2-c2ccccc2)cc1 | 3.43%
29 | CCN(CC)Cc1c(C(=O)N/N=C/c2ccco2)nnn1-c1nonc1N | 5.64%
30 | COc1ccc(OC)c(NC(=O)CN2CCC(NC(=O)c3ccccc3C)CC2)c1 | -4.31%
31 | CC(CNC(=O)c1ccc(C#N)cc1)NC(=O)c1ccc(C#N)cc1 (stereo not drawn) | -81.9%
32 | CC1(C)CC(=O)c2sc(NC(=O)C3COc4ccccc4O3)nc2C1 (stereo not drawn) | 9.32%
33 | CCCC#CCN1CCN(C23CC4CC(CC(C4)C2)C3)CC1 | 7.17%
34 | COc1ccc(N2CCN(C(=O)c3cc4ccccc4o3)CC2)cc1 | 19.4%
35 | Cc1ccc2c(c1)C1CN(C)CCC1N2C(=O)COc1ccc(S(=O)(=O)N2CCOCC2)cc1 (stereo not drawn) | 1.42%
36 | COCC(C)NCc1cccc([N+](=O)[O-])c1.O=C(O)C(=O)O (stereo not drawn) | -2.04%
37 | Cc1ccc(CN2CCNC(=O)C2CC(=O)N2CCN(c3ncccn3)CC2)o1 (stereo not drawn) | 12.4%
38 | Cn1ccc(-c2ccccc2)c(C#N)c1=O | 8.97%
39 | COc1ccc(OC)c(NC(=O)C2CCCCC2)c1 | 10.7%
40 | c1ccc2c(c1)CCN(Cc1nnnn1Cc1ccc3c(c1)OCO3)C2 | 16.7%
41 | Cc1c(C(=O)O)sc(=S)n1-c1ccccc1 | 10.3%
42 | CCOC(=O)N1CCN(c2c(-c3ccc(C(C)C)cc3)c(=O)c2=O)CC1 | -0.0588%
43 | CCCCCCCCCCCC(=O)N/N=C/c1ccco1 | -8.44%
44 | COc1ccccc1Oc1coc2cc(O)ccc2c1=O | 6.45%

Row | SMILES | hERG current change (%, negative = inhibition) at 1uM
45 | Cc1ccc(Cc2c(C)nc3nc(SCC(=O)N4CCC5(CC4)OCCO5)nn3c2C)cc1 | -14.5%
46 | NC1=NC(=O)S/C1=C\c1ccc(O)cc1 | 11.4%
47 | COc1ccccc1NC(=O)COC(=O)c1cnccn1 | 14.9%
48 | CCOc1cc(-c2c(C#N)c(=O)[nH]c3c2c(C)nn3-c2ccc(F)cc2)ccc1O | 13.8%
49 | O=C(C1CCC1)N1CCc2cc(S(=O)(=O)N3CCc4ccccc4C3)ccc21 | 10.3%
50 | O=C(O)c1ccc(NC(=S)Nc2ccccc2)cc1 | 11.4%
51 | N#Cc1c(N)[nH]c(=S)c(C#N)c1-c1ccccc1 | 9.67%
52 | NC(=O)c1ccc2c(=O)n3c(-c4cc(Cl)c(N)c(Cl)c4)csc3nc2c1 | 0.694%
53 | O=C(NNC(=O)c1cccnc1)NC1CCCCC1 | 19.2%
54 | COc1ccc(N=C2NC(=O)C(CO)(CO)S2)cc1 | 8.51%
55 | COCCCn1c(SCC(=O)NCc2ccco2)nc2sc3c(c2c1=O)CCC3 | -17.9%
56 | Nc1ccc2nc(SCC(=O)N3CCN(c4ccccc4)CC3)sc2c1 | 11%
57 | O=C(NC1CCCC1)C(c1ccsc1)N(CCc1ccccc1)C(=O)Cc1cccs1 (stereo not drawn) | 14.8%
58 | O=[N+]([O-])c1ccc2nc(CCCc3nc4ccc([N+](=O)[O-])cc4[nH]3)[nH]c2c1 | 1.17%
59 | Cc1ccc(S(=O)(=O)NNC(=O)Nc2ccccc2F)c(C)c1 | 3.11%
60 | CC1C2NC(=O)N(Cc3ccccc3)C1(C)Oc1ccccc12 (stereo not drawn) | 6.37%
61 | O=C(COC(=O)/C=C/c1cccc([N+](=O)[O-])c1)NCC1CCCO1 (stereo not drawn) | 4.41%
62 | CCC(C)N(C(=O)c1csnn1)C(C(=O)NC1CCCC1)c1ccc(F)cc1 (stereo not drawn) | 2.92%
63 | O=C(N/N=C\c1cccc(Cl)c1)c1ccc(Cn2cc(Br)c([N+](=O)[O-])n2)o1 | -20.8%
64 | O=C(COC(=O)Cn1cnc2ccccc21)NCCc1ccccc1 | 6.43%
65 | O=C1C2CCCN2C(=O)N1CCCN1CCN(c2ccc([N+](=O)[O-])cc2)CC1 (stereo not drawn) | -63.3%
66 | Cc1ccccc1N=Nc1c(O)[nH]c2ccccc12 | 10.5%

Row | SMILES | hERG current change (%, negative = inhibition) at 1uM
67 | COc1ccc(NC(=O)CN(C)CC(=O)c2[nH]c(C)c(C(C)=O)c2C)cc1 | 3.25%
68 | O=C(Nc1cccc(C(=O)N2CCCc3ccccc32)c1)c1ccccc1 | 4.91%
69 | Cc1ccccc1C(=O)NC1CCN(CC(=O)Nc2ccccc2)CC1 | 5.41%
70 | CN(c1ccc(F)cc1)S(=O)(=O)c1ccc(Cl)c(C(=O)Nc2ccc3c(c2)CCC3)c1 | 7.66%
71 | COC(=O)c1ccc(C(=O)OC)c(NC(=O)C(C)C)c1 | 8.67%
72 | COc1ccc(NC(=O)c2ccccc2NC(=O)c2ccccc2C(=O)O)c(OC)c1 | 20.1%
73 | CCOC(=O)c1cc(C)sc1/N=C/C1C(=O)CCCC1=O | 7.95%
74 | COc1ccc(C(=O)NCc2nnc(SCC(=O)c3ccccc3)o2)cc1 | 15.3%
75 | Cc1ccc(C)c(S(=O)(=O)N2CCCC2CNC(=O)c2ccc([N+](=O)[O-])cc2)c1 (stereo not drawn) | -45.8%
76 | COc1ccc(CNC(=O)c2cc(=O)c3ccc(C)c(C)c3o2)cc1 | 13.6%
77 | CCC(C)NC(=O)c1cn(CC)c2ccc(S(=O)(=O)N(C)C)cc2c1=O (stereo not drawn) | 4.93%
78 | COc1ccccc1N1CCN(C(=O)c2sc3ncnc(N4CCN(c5ccccn5)CC4)c3c2C)CC1 | 7.33%
79 | CCOC(=O)c1ccc(N=C2SC(C(=O)NC)CC(=O)N2Cc2ccc(F)cc2)cc1 (stereo not drawn) | 1.82%
80 | CCN1C(=O)/C(=C\N(C)C)S/C1=N\S(=O)(=O)c1ccc(C)cc1 | 7.58%
81 | CN(NS(=O)(=O)c1ccc(F)cc1)c1ncc(C(F)(F)F)cc1Cl | 0.312%
82 | CC(=O)c1ccc(N2CCN(c3ccc(S(=O)(=O)NCCCN(C)C)cc3[N+](=O)[O-])CC2)cc1 | 0.801%
83 | O=C(Cc1ccc(O)cc1)N/N=C/c1cccs1 | 13.4%
84 | Cc1ccccc1NC(NC(=O)c1cccnc1)C(Cl)(Cl)Cl (stereo not drawn) | 9.23%
85 | O=C(NN(c1ccccc1)c1ccccc1)c1ccccc1F | 18.6%
86 | Cl.OCCNCc1cc(Br)ccc1OCc1ccc(F)cc1 | -3.17%
87 | Cc1ccccc1C(=O)N1CCC(C(=O)OCC(=O)Nc2cccc([N+](=O)[O-])c2C)CC1 | -3%
